# Source: the supplement of paper PMC8728848
# This is one part of the list.
# B1: LecB PA14 (Pseudomonas aeruginosa) (protein)
# chain: MATQGVFTLPANTQFGVTAFANSAGTQTVNVQVNNETVATFTGQSTNNAIIGSKVLNSGGGGKVQILVSVNGRSSDLVSAQVILANELNFALVGSEDSTDNDYNDAVVVINWPLG
# Experiments:
# Experiment in all cases: glycan array binding signal (z-score within array); higher = stronger binding
# Details in all cases: glycan notation: IUPAC condensed, linker removed
# Gal6S(b1-4)Glc6S = target: Gal6S(b1-4)Glc6S
# In short: (§1)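 From the Consortium for Functional Glycomics database, 3228 arrays were curated, keeping only those whose protein sequence was available. Binding is given as a within-array Z-score averaged across arrays sharing a protein sequence and across linkers. Negative Z-scores can be read as non-binding.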
# Gal6S(b1-4)GlcNAc = target: Gal6S(b1-4)GlcNAc
# In short: as §1
# Gal6S(b1-4)GlcNAc6S = target: Gal6S(b1-4)GlcNAc6S
# In short: as §1
# GalNAc(a1-3)Gal = target: GalNAc(a1-3)Gal
# In short: as §1
# GalNAc(a1-3)GalNAc = target: GalNAc(a1-3)GalNAc
# In short: as §1
# [1] = target: GalNAc(a1-3)GalNAc(b1-3)Gal(a1-4)Gal(b1-4)Glc
# In short: as §1
# [2] = target: GalNAc(a1-3)GalNAc(b1-3)Gal(a1-4)Gal(b1-4)GlcNAc
# In short: as §1
# GalNAc(b1-3)Gal = target: GalNAc(b1-3)Gal
# In short: as §1
# [3] = target: GalNAc(b1-3)Gal(a1-4)Gal(b1-4)GlcNAc
# In short: as §1
# [4] = target: GalNAc(b1-3)Gal(a1-4)Gal(b1-4)GlcNAc(b1-3)Gal(b1-4)Glc
# In short: as §1
# [5] = target: GalNAc(b1-3)Gal(a1-6)Gal(b1-4)Glc
# In short: as §1
# GalNAc(b1-3)GalNAc = target: GalNAc(b1-3)GalNAc
# In short: as §1
# GalNAc(b1-3)GlcNAc = target: GalNAc(b1-3)GlcNAc
# In short: as §1
# GalNAc(b1-4)Gal(b1-4)Glc = target: GalNAc(b1-4)Gal(b1-4)Glc
# In short: as §1
# GalNAc(b1-4)GlcNAc = target: GalNAc(b1-4)GlcNAc
# In short: as §1
# [6] = target: GalNAc(b1-4)GlcNAc(b1-2)Man
# In short: as §1
# [7] = target: GalNAc(b1-4)GlcNAc(b1-2)Man(a1-3)[GalNAc(b1-4)GlcNAc(b1-2)Man(a1-6)]Man(b1-4)GlcNAc(b1-4)GlcNAc
# In short: as §1
# [8] = target: GalNAc(b1-4)GlcNAc(b1-3)GalNAc(b1-4)GlcNAc
# In short: as §1
# GalNAc(b1-4)GlcNAc6S = target: GalNAc(b1-4)GlcNAc6S
# In short: as §1
# GalNAc(b1-6)GalNAc = target: GalNAc(b1-6)GalNAc
# In short: as §1
# GalNAc3S(b1-4)GlcNAc = target: GalNAc3S(b1-4)GlcNAc
# In short: as §1
# GalNAc3S(b1-4)GlcNAc3S = target: GalNAc3S(b1-4)GlcNAc3S
# In short: as §1
# [9] = target: GalNAc3S(b1-4)[Fuc(a1-3)]GlcNAc
# In short: as §1
# GalNAc4S6S(b1-4)GlcNAc = target: GalNAc4S6S(b1-4)GlcNAc
# In short: as §1
# GalNAc6S(b1-4)GlcNAc = target: GalNAc6S(b1-4)GlcNAc
# In short: as §1
# Glc(a1-4)Glc = target: Glc(a1-4)Glc
# In short: as §1
# [10] = target: Glc(a1-4)Glc(a1-4)Glc(a1-4)Glc
# In short: as §1
# Glc(a1-6)Glc(a1-6)Glc = target: Glc(a1-6)Glc(a1-6)Glc
# In short: as §1
# [11] = target: Glc(a1-6)Glc(a1-6)Glc(a1-6)Glc
# In short: as §1
# Glc(b1-4)Glc = target: Glc(b1-4)Glc
# In short: as §1
# Glc(b1-6)Glc = target: Glc(b1-6)Glc
# In short: as §1
# GlcA(b1-3)Gal = target: GlcA(b1-3)Gal
# In short: as §1
# GlcA(b1-3)GlcNAc = target: GlcA(b1-3)GlcNAc
# In short: as §1
# GlcA(b1-6)Gal = target: GlcA(b1-6)Gal
# In short: as §1
# [12] = target: GlcA3S(b1-3)Gal(b1-4)GlcNAc(b1-2)Man
# In short: as §1
# [13] = target: GlcA3S(b1-3)Gal(b1-4)GlcNAc(b1-3)Gal(b1-4)Glc
# In short: as §1
# [14] = target: GlcNAc(a1-3)Gal(b1-4)GlcNAc
# In short: as §1
# [15] = target: GlcNAc(a1-4)Gal(b1-3)GlcNAc
# In short: as §1
# [16] = target: GlcNAc(a1-4)Gal(b1-4)GalNAc
# In short: as §1
# [17] = target: GlcNAc(a1-4)Gal(b1-4)GlcNAc
# In short: as §1
# [18] = target: GlcNAc(a1-4)Gal(b1-4)GlcNAc(b1-3)Gal(b1-4)Glc
# In short: as §1
# [19] = target: GlcNAc(a1-4)Gal(b1-4)GlcNAc(b1-3)Gal(b1-4)GlcNAc
# In short: as §1
# [20] = target: GlcNAc(a1-4)Gal(b1-4)GlcNAc(b1-3)Gal(b1-4)GlcNAc(b1-3)Gal(b1-4)GlcNAc
# In short: as §1
# [21] = target: GlcNAc(a1-4)Gal(b1-4)GlcNAc(b1-3)Gal(b1-4)[Fuc(a1-3)]GlcNAc(b1-3)Gal(b1-4)[Fuc(a1-3)]GlcNAc
# In short: as §1
# [22] = target: GlcNAc(a1-6)Gal(b1-4)GlcNAc
# In short: as §1
binder,measurement,setting,value
B1,glycan array binding signal (z-score),Gal6S(b1-4)Glc6S,-0.022
same,glycan array binding signal (z-score),Gal6S(b1-4)GlcNAc,-0.841
same,glycan array binding signal (z-score),Gal6S(b1-4)GlcNAc6S,-0.767
same,glycan array binding signal (z-score),GalNAc(a1-3)Gal,-0.201
same,glycan array binding signal (z-score),GalNAc(a1-3)GalNAc,-0.527
same,glycan array binding signal (z-score),[1],-0.195
same,glycan array binding signal (z-score),[2],-0.57
same,glycan array binding signal (z-score),GalNAc(b1-3)Gal,-0.602
same,glycan array binding signal (z-score),[3],0.245
same,glycan array binding signal (z-score),[4],-0.248
same,glycan array binding signal (z-score),[5],-0.3
same,glycan array binding signal (z-score),GalNAc(b1-3)GalNAc,0.151
same,glycan array binding signal (z-score),GalNAc(b1-3)GlcNAc,0.446
same,glycan array binding signal (z-score),GalNAc(b1-4)Gal(b1-4)Glc,-0.879
same,glycan array binding signal (z-score),GalNAc(b1-4)GlcNAc,-0.772
same,glycan array binding signal (z-score),[6],-0.559
same,glycan array binding signal (z-score),[7],-0.424
same,glycan array binding signal (z-score),[8],-0.272
same,glycan array binding signal (z-score),GalNAc(b1-4)GlcNAc6S,-0.625
same,glycan array binding signal (z-score),GalNAc(b1-6)GalNAc,-0.482
same,glycan array binding signal (z-score),GalNAc3S(b1-4)GlcNAc,0.077
same,glycan array binding signal (z-score),GalNAc3S(b1-4)GlcNAc3S,-0.53
same,glycan array binding signal (z-score),[9],0.25
same,glycan array binding signal (z-score),GalNAc4S6S(b1-4)GlcNAc,-0.487
same,glycan array binding signal (z-score),GalNAc6S(b1-4)GlcNAc,0.116
same,glycan array binding signal (z-score),Glc(a1-4)Glc,-0.901
same,glycan array binding signal (z-score),[10],-0.427
same,glycan array binding signal (z-score),Glc(a1-6)Glc(a1-6)Glc,-0.565
same,glycan array binding signal (z-score),[11],-0.355
same,glycan array binding signal (z-score),Glc(b1-4)Glc,-0.173
same,glycan array binding signal (z-score),Glc(b1-6)Glc,0.04
same,glycan array binding signal (z-score),GlcA(b1-3)Gal,0.136
same,glycan array binding signal (z-score),GlcA(b1-3)GlcNAc,-0.086
same,glycan array binding signal (z-score),GlcA(b1-6)Gal,-0.49
same,glycan array binding signal (z-score),[12],0.52
same,glycan array binding signal (z-score),[13],-0.704
same,glycan array binding signal (z-score),[14],-0.037
same,glycan array binding signal (z-score),[15],-0.801
same,glycan array binding signal (z-score),[16],0.482
same,glycan array binding signal (z-score),[17],-0.75
same,glycan array binding signal (z-score),[18],-0.506
same,glycan array binding signal (z-score),[19],0.721
same,glycan array binding signal (z-score),[20],-0.119
same,glycan array binding signal (z-score),[21],0.502
same,glycan array binding signal (z-score),[22],-0.551
